Measured values taken from PubChem BioAssay AID1347073 (National Center for Advancing Translational Sciences (NCATS), 2019).
About 200 (0.44%) of roughly 45,000 compounds were called active. Roughly 7% stayed inconclusive and do not appear here. Calls come from the whole dose curve; as a rule, active = well fitted activation curve with a large enough effect; inconclusive = small, poorly fitted or top-dose-only effect; inactive = no such curve, though single readings can be large or run the other way. This is one part of the list.

experiment: qHTS of TDP-43 Inhibitors: NCGC Sytravon Library Screen; settings: yeast TDP-43 toxicity rescue, BacTiter-Glo growth, 24 h; series mostly up to 46.1 µM; growth rescue (activation): at the top concentration; note: 0% is about no effect; nearly all actives have a fitted effect of over 55% in size
Method in brief: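 TDP-43-expressing yeast, pregrown in raffinose, seeded at OD600 0.02 in galactose medium with compound for 24 hr at 30 deg C. Growth read by BacTiter-Glo luminescence, so rescue of toxicity appears as activation.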

Structure (SMILES) | growth rescue (activation)
Cc1ccc(-c2cnc(C(O)c3cc(C)cc(C)c3)[nH]2)cc1 (stereo unspecified) | inactive: 14.3%
NC(=O)NC(CC(=O)NCc1ccc2c(c1)OCO2)c1ccccc1Cl (stereo unspecified) | inactive: 5.9%
COc1ccccc1Nc1cc(C(=O)NCc2cccnc2)c2ccccc2n1 | inactive: 5.63%
COc1ccc(C(=O)Nc2ccc(N3CCN(Cc4ccccc4)CC3)cc2)cc1 | inactive: -2.98%
CCOc1ccc(C(=O)NCC(=O)N2CCN(c3ccccc3O)CC2)cc1 | inactive: -2.5%
CCN1CCN(CCCNC(=O)CNC(=O)c2nn(-c3ccc(OC)cc3OC)c(=O)c3ccccc23)CC1 | inactive: 9.38%
Cc1ccc(-c2cc(C(=O)Nc3ccc(S(=O)(=O)Nc4ncccn4)cc3)c3ccccc3n2)cc1 | inactive: 17.1%
Cn1nc(C(=O)NC2CCCc3ccccc32)ccc1=O (stereo unspecified) | inactive: 1.39%
O=C(COC(=O)c1cccc(S(=O)(=O)NCc2ccccc2)c1)NCC1CCCO1 (stereo unspecified) | inactive: 5%
Cc1ccc(N(C(=O)CNC(=O)c2ccco2)C(C(=O)NC2CCCCC2)c2ccncc2)cc1F (stereo unspecified) | inactive: 5.32%
O=C(NCC1(c2ccccc2)CCCC1)c1ccc(Br)o1 | inactive: -8.54%
O=C(NCc1ccccn1)c1ccc(Cl)c(S(=O)(=O)Nc2ccccc2C(=O)NCc2ccccn2)c1 | inactive: -6.41%
O=C(O)c1cccc(S(=O)(=O)N(Cc2ccccc2)c2ccc(Cl)cc2)c1 | inactive: 10.2%
Cc1ccc(Cn2ncc(C)c2N)o1 | inactive: -28.6%
COc1cccc(/C=N/Nc2nc3ccccc3n3cnnc23)c1O | inactive: -0.257%
Cc1ccc(N=Cc2cc3c(cc2O)OC(N)=C(C#N)C3c2ccccc2)cc1 (stereo unspecified) | inactive: -24.2%
Cc1ccccc1C(=O)Nc1ccc(S(=O)(=O)N2CC(C)OC(C)C2)cc1 (stereo unspecified) | inactive: 1.03%
Cn1cnnc1SCc1ccc(C(=O)N/N=C/c2cccs2)cc1 | inactive: -12.3%
CCCOc1cccc(C(=O)NCCNC(=O)c2ccc(C)nc2)c1 | inactive: 10.1%
CS(=O)(=O)N1CCC(Oc2ccccc2C(=O)N2CCN(CC3CC3)CC2)CC1 | inactive: 12.6%
O=C(c1cccc(C(F)(F)F)c1)N1CCOC12CCN(c1ncc(C(F)(F)F)cc1Cl)CC2 | inactive: 29.8%
Cc1cccc(/C(N)=N/OC(=O)c2ccc3c(c2)OCO3)c1 | inactive: -93%

Structure (SMILES) | growth rescue (activation)
COc1ccc(CN(CCC(c2ccccc2)c2ccc(OC(C)C)cc2)C(=O)CCl)cc1OC (stereo unspecified) | inactive: 8.69%
CCOc1cc(NC(=S)NCCOC)c(OCC)cc1NC(=O)c1ccco1 | inactive: 9.36%
O=C(O)CCCCCN1C(=O)/C(=C/c2cn(-c3ccccc3)nc2-c2cccs2)SC1=S | inactive: -1.37%
COc1ccc2c(c1)-c1nc(NC(=O)c3ccccc3F)sc1CC2 | inactive: 13.5%
CCC(=O)N1CCN(C(C)=O)C1c1ccccc1 (stereo unspecified) | inactive: -2.56%
CCCc1cc(C(=O)N2CCC(N3CCC(C(=O)NC(C)C)CC3)CC2)n(C)n1 | inactive: 6.38%
O=C(NCC1CCCO1)c1cc2ccccc2oc1=O (stereo unspecified) | inactive: 6.86%
CCS(=O)(=O)c1ccc2oc(Nc3ccccc3Br)nc2c1 | inactive: 29.4%
CC1(C)CC(=O)C2=C(C1)OC(N)=C(C#N)C2c1cccs1 (stereo unspecified) | inactive: -3.97%
CCC(=O)NC(=S)Nc1cccc(-c2nc3ncccc3o2)c1 | inactive: -9.39%
C[C@H](NC(=O)c1ccccc1Cl)C(=O)NCc1cccs1 | inactive: 10.1%
O=C(Nc1cccnc1)c1ccc(NS(=O)(=O)c2cccc([N+](=O)[O-])c2)cc1 | inactive: 10.2%
CC(/C=N/NC(=O)c1cc(-c2ccc3ccccc3c2)n[nH]1)=C\c1ccco1 | inactive: 17.9%
NC(=O)COC(=O)/C=C/c1ccc(S(=O)(=O)N2CCCCCC2)cc1 | inactive: 13.4%
COc1ccc(NC(=O)Cc2c(Sc3ccccc3)c3ccccc3n2C)cc1 | inactive: -7.81%
CCOc1ccccc1NC(=O)C1CCCN(c2c(CC)c(C)nc3ncnn23)C1 (stereo unspecified) | inactive: 14.8%
O=C(c1ccccc1-c1nc(-c2ccccc2Cl)no1)N1CCOCC1 | inactive: 1.2%
COc1ccc(C(=O)C2CCCN(Cc3nc4ccccc4nc3C)C2)cc1OC (stereo unspecified) | inactive: -4.55%
Cc1cc(C)nc(SCC(=O)NC(=O)c2ccccc2O)n1 | inactive: 12.1%
CCOC(=O)c1c(C)[nH]c(C(=O)OC)c1CCC(=O)OC | inactive: 37.3%
COc1cc(NS(=O)(=O)c2ccc(NC(=O)/C=C/c3cccc([N+](=O)[O-])c3)cc2)ncn1 | inactive: -5.84%
C=C(C)C(=O)Nc1ccc2c(c1)OCCOCCOCCO2 | inactive: 2.56%

Structure (SMILES) | growth rescue (activation)
COc1ccc(C(=O)N2CCCCCC2)cc1OC1CCN(C(C)=O)CC1 | inactive: 8.32%
O=C(COC(=O)c1cccnc1Cl)NCc1ccc2c(c1)OCO2 | inactive: 5.49%
Cc1c(NC(=O)CCc2ccc(S(=O)(=O)N3CCOCC3)cc2)c(=O)n(-c2ccccc2)n1C | inactive: 7.47%
O=C(O)Cn1c(Cc2ccccc2)nc2ccccc21 | inactive: -0.723%
CCOC(=O)c1c(C)n(S(=O)(=O)c2ccc(C)cc2)c2ccc(O)c(C(=O)O)c12 | inactive: -11.1%
O=C(COC(=O)c1ccc(O)cc1)Nc1ncc(Cl)cc1Cl | inactive: -2.15%
CC1(C)Cc2ccccc2-c2nc3n(c(=O)c21)CCS3 | inactive: 13.7%
Cc1ccc(C2(C)NC(=O)N(CC(=O)Nc3cc(S(=O)(=O)N(C)C)ccc3C)C2=O)cc1 (stereo unspecified) | inactive: -6.34%
CCN(CCO)c1ccc(-n2c(N)c(C(=O)OC)c3nc4ccccc4nc32)cc1 | inactive: -1.65%
Cc1nc2c(C)cccn2c1/C(O)=C1\C(=O)C(=O)N(CCN(C)C)C1c1ccco1 (stereo unspecified) | inactive: 3.81%
Cc1ccc(-c2nnc(SCC(=O)NC3CCCC3)n2C)cc1 | inactive: 12.8%
CC(=O)Nc1ccc(NC(=O)Cn2cnc3c(cnn3C(C)(C)C)c2=O)cc1 | inactive: -6.69%
CCCCNS(=O)(=O)c1ccc(NC(=O)C(Sc2ccccc2)c2ccccc2)cc1 (stereo unspecified) | inactive: -12.7%
CN(C)CCNS(=O)(=O)c1ccc(N2CCc3ccccc32)c([N+](=O)[O-])c1 | inactive: -8.49%
O=C1CCC([N+](=O)[O-])C(c2ccc(F)c(Br)c2)N1 (stereo unspecified) | inactive: -9.52%
CCC(CC)C(=O)N(C)c1c(C)nc2c(OCc3ccc(Cl)cc3Cl)cccn12 | inactive: 5.16%
COc1cc(NC(=S)N2CCCCC2C)c(OC)cc1Cl (stereo unspecified) | inactive: 13.2%
O=C(NCc1ccccn1)c1ccc(CNS(=O)(=O)c2cccc(Cl)c2)cc1 | inactive: 12.2%
CN(C)C(CNC(=O)c1ccc(Br)cc1)c1ccco1 (stereo unspecified) | inactive: -24.6%
COc1cc(C(=O)NCCC(=O)N2CCCCC2)cc(OC)c1OC | inactive: 12.4%
Cc1c(Cl)sn(-c2ccc(Cl)cc2)c1=O | inactive: -94%
Cc1nn(Cc2noc(C(=O)NCCc3ccccn3)n2)c(C)c1Br | inactive: 4.67%

Structure (SMILES) | growth rescue (activation)
CCCCNC(=O)C1(C)CCN1Cc1ccc(C(=O)OCC)cc1 (stereo unspecified) | inactive: -2.79%
O=C(N/N=C/c1ccc([N+](=O)[O-])cc1)C(=O)N1CCCC1 | inactive: 10.7%
CC(=O)OC[C@@H]1CN(Cc2ccccc2)C[C@H](n2cnc3c(NC4CCC4)ncnc32)O1 | inactive: -2.8%
CC(C)N(C(=O)CSc1n[nH]c(=O)n1CCc1ccccc1)C(C)C | inactive: 3.24%
N#CC1=C(N)Oc2nc(-c3ccccc3)[nH]c2C1c1cccnc1 (stereo unspecified) | inactive: -24.3%
O=c1cc(CN2CCC(Cc3ccccc3)CC2)nc2sccn12 | inactive: 12.7%
CCCNC(=O)NC(=O)CN1CCCC1c1ccc2c(c1)OCCO2 (stereo unspecified) | inactive: -17.2%
COc1ccc(CNC(=O)COC(=O)c2ccc(OCc3c(C)noc3C)cc2)cc1OC | inactive: 5.66%
N#C/C(=C\c1c(Oc2ccccc2F)nc2ccccn2c1=O)C(=O)NC1CCS(=O)(=O)C1 (stereo unspecified) | inactive: 18%
Cc1ccccc1OCC(=O)N/N=C1\SCC(=O)N1Cc1ccccc1 | inactive: 5.13%
CCc1nnc2c(NCCc3ccc(OC)c(OC)c3)nc3ccccc3n12 | inactive: 0.632%
CCN(Cc1ccc(OC)c(F)c1)C(=O)CCl | inactive: 1.74%
COc1ccc(OC)c(NC(=O)Cn2c(CCC(=O)O)ccc2-c2ccc(C)cc2)c1 | inactive: -0.827%
COc1ccccc1CCc1nnc(CCC(=O)NCCOc2cccnc2)o1 | inactive: 0.0967%
CC(=O)Nc1cccc(NC(=O)/C=C/c2ccc(S(=O)(=O)N3CCOCC3)cc2)c1 | inactive: -18.5%
CC(C)C[C@H](NC(=O)c1cc2cc(Cl)ccc2n1C)C(=O)N1CCC(C(=O)O)CC1 | inactive: -17.9%
N#Cc1cc2cc3c(cc2nc1SCC(=O)N1CCCC1)OCCO3 | inactive: 3.41%
CC(=O)CC(=O)Nc1ncccn1 | inactive: -14.9%
O=C(COc1ccccc1)NC1CCSC1=O (stereo unspecified) | inactive: 7.97%
COc1ccc(CNCCC(c2ccc(OC)cc2)c2ccccc2OC)cc1 (stereo unspecified) | inactive: 2.65%
O=C(NCc1ccccn1)c1ccc(Cn2cc(C(F)(F)F)ccc2=O)cc1 | inactive: 5.6%
Cc1ccc(C(=O)N2CCC(C(=O)NC3CCCC3)CC2)cc1 | inactive: -4.27%

Structure (SMILES) | growth rescue (activation)
COc1ccc(-c2cc(C(F)(F)F)nc(SCCC(=O)Nc3cc(C)on3)n2)cc1 | inactive: 15.2%
Cc1ccc(S(=O)(=O)Nc2cc3c(cc2C#N)OCO3)cc1C(N)=O | inactive: -2.41%
O=C(Nc1cccc(O)c1)c1cc(-c2cccs2)on1 | inactive: 14.3%
COc1ccc(/C=N/NC(=O)c2ccccc2O)cc1CN1CCOCC1 | inactive: 1.56%
CC(Oc1ccc(F)cc1)C(=O)Nc1cc(-c2ccc(F)c(F)c2)no1 (stereo unspecified) | inactive: 14%
CCN(/N=C/C=C/c1ccccc1)c1cc(=O)n(C)c(=O)[nH]1 | inactive: -6.39%
NC(=O)c1nsc(C(=O)N(c2ccccc2)C(C(=O)NCC2CCCO2)c2ccc(F)cc2)c1N (stereo unspecified) | inactive: -2.04%
CCOCCCN1CN(S(=O)(=O)c2ccc(Cl)cc2)c2nc3ccccc3nc21 | inactive: 31.6%
Cc1cc([N+](=O)[O-])nn1CCCC(=O)NCc1ccc(F)cc1 | inactive: 1%
COc1ccc(CNC(=O)COC(=O)c2cc3ccccc3o2)cc1 | inactive: 8.46%
Cc1ccc(OCC(=O)Nc2ccc(F)cc2)c([N+](=O)[O-])n1 | inactive: 24.2%
OC[C@@H]1CN(Cc2ccccc2)C[C@H](n2cnc3c(N4CCOCC4)ncnc32)O1 | inactive: -4.76%
O=C(CSc1n[nH]c(-c2ccncc2)n1)Nc1ccc(Cl)c(Cl)c1 | inactive: -11.8%
Cc1onc(-c2c(F)cccc2Cl)c1C(=O)N1CCCC1 | inactive: 26.7%
O=C(CCN1C(=O)c2ccc([N+](=O)[O-])cc2C1=O)Nc1ccccc1C(=O)O | inactive: -5.18%
CCOc1ccc(NC(=O)COC(=O)C2CC2C)cc1 (stereo unspecified) | inactive: 10.8%
COCCNC(=O)C1(C)CCCN(C(=O)c2cc(C)oc2C)C1 (stereo unspecified) | inactive: 5.36%
O=C(Cc1ccccc1F)NCC1(N2CCOCC2)CCCCC1 | inactive: 19.8%
